{"source": "patent US10703802B2", "about": "(priority 2013, dated 2020)", "molecules": {"B1": {"name": "CT164: human monoclonal antibody effective against the influenza A viruses of group 2 (protein)", "light": "EVVLTQSPGTLTLPPGDRATLSCRASHSVGSTYIAWFQQKSGQAPRRLIYGASNRATDIPDRFSGSGSGTDFTLTIRRLEPEDSAVYYCQQFSVSPWTFGQGTRVEIKRTVAAPSVFIFPPSDEQLKSGTASVVCLLNNFYPREAKVQWKVDNALQSGNSQESVTEQDSKDSTYSLSSTLTLSKADYEKHKVYACEVTHQGLSSPVTKSFNRGEC", "heavy": "QVQLVQSGVEVKKPGASVKVSCKTSGYPFSTYGVSWVRQAPGQGLEWVGWISGYTGITDYAQKSQGRVTLTTDASTATAFLELRSLRPDDTATYFCARDKVQGRVEAGSGGRHDYWGQGTLVIVSS[human IgG1 constant region omitted here]"}, "B2": {"name": "CT166: human monoclonal antibody effective against the influenza A viruses of group 2 (protein)", "light": "EVVLTQSPGTLALPPGERATLSCRASHSIGSTYIAWYQQKSGQAPRRLIYGASNRASDIPDRFSGSGSGTDFTLTIRRLEPEDSAVYYCQQFSVSPWTFGQGTRVEIKRTVAAPSVFIFPPSDEQLKSGTASVVCLLNNFYPREAKVQWKVDNALQSGNSQESVTEQDSKDSTYSLSSTLTLSKADYEKHKVYACEVTHQGLSSPVTKSFNRGEC", "heavy": "QVQLVQSGAEVKKPGASVKVSCKTSGYSFSTYGVSWVRQAPGQGLEWVGWISGYTGITDYAQKFQGRVTLTTDATTATAFLELRSLRPDDTATYFCARDKVQGRVEVGSGGRHDYWGQGTLVIVSS[human IgG1 constant region omitted here]"}}, "key": {"H3N2 A/Wisconsin/67/05": {"test_system": "H3N2 A/Wisconsin/67/05", "type": "cell-based"}, "H3N2 A/Brisbane/10/07": {"test_system": "H3N2 A/Brisbane/10/07", "type": "cell-based"}, "[1]": {"test_system": "HA1 subunit of A/Brisbane/10/07(H3N2)", "type": "binding"}, "A/Brisbane/10/07": {"test_system": "A/Brisbane/10/07", "type": "cell-based, influenza A virus"}, "[2]": {"test_system": "trimeric HA of A/Brisbane/10/07 (H3N2)", "type": "binding"}}, "data": [{"molecule": "B1", "values": [{"measurement": "lowest concentration of the antibody at which no virus antigen was detected (MN test)", "setting": "H3N2 A/Wisconsin/67/05", "result": 2.5, "unit": "µg/mL"}, {"measurement": "lowest concentration of the antibody at which no virus antigen was detected (MN test)", "setting": "H3N2 A/Brisbane/10/07", "result": 0.625, "unit": "µg/mL"}, {"measurement": "binding to HA antigen (ELISA)", "setting": "[1]", "result": "did not bind"}, {"measurement": "hemagglutination inhibition end point (lowest antibody concentration at which no hemagglutination reaction was observed)", "setting": "A/Brisbane/10/07", "result": ">20", "unit": "µg/mL"}, {"measurement": "binding to HA antigen (ELISA)", "setting": "[2]", "result": "did easily bind"}]}, {"molecule": "B2", "values": [{"measurement": "lowest concentration of the antibody at which no virus antigen was detected (MN test)", "setting": "H3N2 A/Wisconsin/67/05", "result": 5, "unit": "µg/mL"}, {"measurement": "lowest concentration of the antibody at which no virus antigen was detected (MN test)", "setting": "H3N2 A/Brisbane/10/07", "result": 1.25, "unit": "µg/mL"}, {"measurement": "binding to HA antigen (ELISA)", "setting": "[1]", "result": "did not bind"}, {"measurement": "hemagglutination inhibition end point (lowest antibody concentration at which no hemagglutination reaction was observed)", "setting": "A/Brisbane/10/07", "result": ">20", "unit": "µg/mL"}, {"measurement": "binding to HA antigen (ELISA)", "setting": "[2]", "result": "did easily bind"}]}]}
